Experimental findings from paper PMC9911399, “Two distinct binding modes provide the RNA-binding protein RbFox with extraordinary sequence specificity” are described below.

Sequences and labels used below:
T1: RBFOX1 RRM (Homo sapiens, UniProt Q9NWB1 109-208)
T1 sequence: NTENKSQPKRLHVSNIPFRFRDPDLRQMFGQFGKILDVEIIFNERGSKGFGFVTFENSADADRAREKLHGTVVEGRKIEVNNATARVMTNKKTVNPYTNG

B1: UGACGUU (DNA:RNA)
RNA: GGGAGACCGGAAUUCAGAUUGUCCUGACGUUUUAAAUCCCGUCGUAGCCACCA
DNA 1: CAATCTGAATTCCGGTCTCCC
DNA 2: TGGTGGCTACGACGGGATT
B2: GCAUACA (DNA:RNA)
RNA: B1 RNA with U25G, G26C, C28U, G29A, U30C, U31A
DNA 1: CAATCTGAATTCCGGTCTCCC
DNA 2: TGGTGGCTACGACGGGATT
B3: UACAUUU (DNA:RNA)
RNA: B1 RNA with G26A, A27C, C28A, G29U
DNA 1: CAATCTGAATTCCGGTCTCCC
DNA 2: TGGTGGCTACGACGGGATT
B4: UACAAUA (DNA:RNA)
RNA: B1 RNA with G26A, A27C, C28A, G29A, U31A
DNA 1: CAATCTGAATTCCGGTCTCCC
DNA 2: TGGTGGCTACGACGGGATT
B5: UGCCUGA (DNA:RNA)
RNA: B1 RNA with A27C, G29U, U30G, U31A
DNA 1: CAATCTGAATTCCGGTCTCCC
DNA 2: TGGTGGCTACGACGGGATT
B6: CGUGGAA (DNA:RNA)
RNA: B1 RNA with U25C, A27U, C28G, U30A, U31A
DNA 1: CAATCTGAATTCCGGTCTCCC
DNA 2: TGGTGGCTACGACGGGATT
B7: GAAGGAA (DNA:RNA)
RNA: B1 RNA with U25G, G26A, C28G, U30A, U31A
DNA 1: CAATCTGAATTCCGGTCTCCC
DNA 2: TGGTGGCTACGACGGGATT
B8: CGGACCA (DNA:RNA)
RNA: B1 RNA with U25C, A27G, C28A, G29C, U30C, U31A
DNA 1: CAATCTGAATTCCGGTCTCCC
DNA 2: TGGTGGCTACGACGGGATT
B9: CAAGGGG (DNA:RNA)
RNA: B1 RNA with U25C, G26A, C28G, U30G, U31G
DNA 1: CAATCTGAATTCCGGTCTCCC
DNA 2: TGGTGGCTACGACGGGATT
B10: AUCAUGU (DNA:RNA)
RNA: B1 RNA with U25A, G26U, A27C, C28A, G29U, U30G
DNA 1: CAATCTGAATTCCGGTCTCCC
DNA 2: TGGTGGCTACGACGGGATT
B11: CACUUGU (DNA:RNA)
RNA: B1 RNA with U25C, G26A, A27C, C28U, G29U, U30G
DNA 1: CAATCTGAATTCCGGTCTCCC
DNA 2: TGGTGGCTACGACGGGATT
B12: GGCAUGU (DNA:RNA)
RNA: B1 RNA with U25G, A27C, C28A, G29U, U30G
DNA 1: CAATCTGAATTCCGGTCTCCC
DNA 2: TGGTGGCTACGACGGGATT
B13: UGAGCAG (DNA:RNA)
RNA: B1 RNA with C28G, G29C, U30A, U31G
DNA 1: CAATCTGAATTCCGGTCTCCC
DNA 2: TGGTGGCTACGACGGGATT
B14: UAAAGGU (DNA:RNA)
RNA: B1 RNA with G26A, C28A, U30G
DNA 1: CAATCTGAATTCCGGTCTCCC
DNA 2: TGGTGGCTACGACGGGATT
B15: GCUUUUA (DNA:RNA)
RNA: B1 RNA with U25G, G26C, A27U, C28U, G29U, U31A
DNA 1: CAATCTGAATTCCGGTCTCCC
DNA 2: TGGTGGCTACGACGGGATT
B16: GGUUCAA (DNA:RNA)
RNA: B1 RNA with U25G, A27U, C28U, G29C, U30A, U31A
DNA 1: CAATCTGAATTCCGGTCTCCC
DNA 2: TGGTGGCTACGACGGGATT
B17: UUUAAGA (DNA:RNA)
RNA: B1 RNA with G26U, A27U, C28A, G29A, U30G, U31A
DNA 1: CAATCTGAATTCCGGTCTCCC
DNA 2: TGGTGGCTACGACGGGATT
B18: UACAUGA (DNA:RNA)
RNA: B1 RNA with G26A, A27C, C28A, G29U, U30G, U31A
DNA 1: CAATCTGAATTCCGGTCTCCC
DNA 2: TGGTGGCTACGACGGGATT
B19: CGAGUAU (DNA:RNA)
RNA: B1 RNA with U25C, C28G, G29U, U30A
DNA 1: CAATCTGAATTCCGGTCTCCC
DNA 2: TGGTGGCTACGACGGGATT
B20: UAGUACC (DNA:RNA)
RNA: B1 RNA with G26A, A27G, C28U, G29A, U30C, U31C
DNA 1: CAATCTGAATTCCGGTCTCCC
DNA 2: TGGTGGCTACGACGGGATT

Numbering of substitutions follows the chain as printed; changes in the protein carry UniProt numbers. This is one part of the list.

In the experiment the target is T1, RBFOX1 RRM. The experiment is described as follows: EMSA; HiTS-Eq, 1 nM pool, 10 min; buffer printed only for the single-RNA assays: 10 mM Tris pH 7.5, 150 mM NaCl, 3.4 mM EDTA, 0.001% NP-40, 30 C. To be noted: tags: His6 N-terminal (pET28a); label: 5' 32P. In short, it runs like this: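 These values rest on relative association constants, computed from read-count changes of each RNA species versus the control reaction and normalised to the cognate motif. Reads came from free RNA recovered by 8% native PAGE after purified RbFox RRM (wild type or mutant) at increasing concentrations was equilibrated for 10 min in 50 µL with 1 nM of a 5′-radiolabelled pool with 7 randomized nucleotides and DNA-annealed flanks.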
In general terms: A gel shift assay detects complexes by their altered migration in electrophoresis.
For B1, the binding signal was 0.023 KA relative to UGCAUGU. The figure for B2 is 0.0045 KA relative to UGCAUGU; for B3 it is 0.00213 KA relative to UGCAUGU; for B4 it is 0.00256 KA relative to UGCAUGU. Regarding B5, the binding signal is 0.0398 KA relative to UGCAUGU. Next, B6: 0.0142 KA relative to UGCAUGU; B7: 0.00974 KA relative to UGCAUGU; B8: 0.0131 KA relative to UGCAUGU. Next, B9: 0.00379 KA relative to UGCAUGU; B10: 0.00301 KA relative to UGCAUGU; B11: 0.00747 KA relative to UGCAUGU. For B12, the binding signal is 0.426 KA relative to UGCAUGU. As for B13, the binding signal is 0.019 KA relative to UGCAUGU. Next, B14: 0.00976 KA relative to UGCAUGU.

For the molecule B15, the binding signal was 0.00997 KA relative to UGCAUGU. Next, B16: 0.0096 KA relative to UGCAUGU; B17: 0.00979 KA relative to UGCAUGU; B18: 0.0103 KA relative to UGCAUGU. Next, B19: 0.00513 KA relative to UGCAUGU. Next, B20: 0.00724 KA relative to UGCAUGU.
